Molecules are shown by their SMILES. The whole screen tested about 340,000 compounds, of which about 6,900 (2%) were called active. No stated cut-off is given here; in the data, active means inhibition above about 30%; inactive means below that, where a call was filed. Only a part is listed here, and it is no random draw. Entries without a call were filed so in the source.

UniProt P14416, sequence (P14416 whole entry, looked up): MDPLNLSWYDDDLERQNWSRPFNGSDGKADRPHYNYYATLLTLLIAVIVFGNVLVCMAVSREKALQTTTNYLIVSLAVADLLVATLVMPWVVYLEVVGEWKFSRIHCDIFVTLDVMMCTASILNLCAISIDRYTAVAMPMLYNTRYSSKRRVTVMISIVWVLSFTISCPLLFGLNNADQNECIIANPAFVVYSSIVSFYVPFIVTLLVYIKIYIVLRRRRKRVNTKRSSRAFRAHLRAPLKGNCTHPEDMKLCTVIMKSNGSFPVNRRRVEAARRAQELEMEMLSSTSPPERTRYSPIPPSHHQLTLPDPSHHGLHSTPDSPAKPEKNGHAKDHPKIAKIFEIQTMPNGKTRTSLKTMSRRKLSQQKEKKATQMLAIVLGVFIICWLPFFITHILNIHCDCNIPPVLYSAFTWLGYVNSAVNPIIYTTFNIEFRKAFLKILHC

The target in the assay is D(2) dopamine receptor (Homo sapiens) (UniProt P14416). Kind of assay: HTS Assay for Allosteric Antagonists of the Human D2 Dopamine Receptor: Primary Screen for Antagonists. Further: 0% is about no effect. The conditions noted are these: HEK293 TREx D2 cells, calcium flux, dopamine EC80; at 10 µM; stronger effect = higher value. The gist of the method:
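In this primary screen, negative modulation is detected by tracking calcium flux after an EC80 dopamine challenge in inducible HEK293 T-REx D2 cells preexposed to test compound for 180 s.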
(A change in cytosolic calcium serves as a functional read-out for many receptors and channels.)
For `COc1ccc(S(=O)(=O)N2CCN(C(=O)c3cc(-c4ccc(Br)cc4)n[nH]3)CC2)cc1OC`, the inhibition (usually the drop in the measured response relative to a control, in per cent) was -12.5%. The value for `CCOc1ccccc1NC(=O)CSc1nnc2c(CC)c(C)nc(N)n12` was active: 35.2%; that for `Cc1cccc(C(=O)NCc2nnc(SCC(=O)Nc3ccccc3F)n2-c2ccccc2)c1` was -10.5%. Regarding `CCc1cccc(-n2nnc(-c3nc(-c4ccc5c(c4)OCO5)no3)c2C)c1`, the inhibition was determined as 2.41%. In the case of `CCOC(=O)c1cc(-c2ccc(OC)cc2)n(CCC(=O)NC2CCC(C)CC2)c1C` (stereo not given), the inhibition is 13.5%.

`CCOc1ccc(-c2n[nH]c3c2C(c2cccs2)N(c2ccc(Br)cc2)C3=O)cc1` (stereo not given): the inhibition was 4.18%. Under `COc1ccc(NC(=O)CSc2nc(-c3ccccc3)c3ccccc3n2)cc1` stands -9.11%; under `COc1ccc(N2CCN(C(=O)Nc3ccc(Cl)cc3)CC2)cc1`, 8.71%. Under `CCN1CCN(C(c2cccc(OC)c2)c2c(O)cc(C)n(Cc3ccco3)c2=O)CC1` (stereo not given) stands 11.7%; under `S=C(Nc1ccc(Br)cc1Cl)NC1CCN(Cc2ccccc2)CC1`, active: 70.2%.

`O=C(Nc1ccccc1C(F)(F)F)N1Cc2ccccc2Oc2ncccc21`: the inhibition is -3.98%. The value for `COc1cccc(C2C=C(c3ccc(C)cc3)Nc3c(C(=O)Nc4ccc(F)cc4)cnn32)c1OC` (stereo not given) was 14.5%; that for `CCOc1ccc(NC(=O)CSc2oc(-c3ccco3)nc2S(=O)(=O)c2ccc(Cl)cc2)cc1` was 16.2%. Under `CC(CCc1ccccc1)NC(=O)Cn1ncc2c3ccccc3n(Cc3cccc(Cl)c3)c2c1=O` (stereo not given) stands 13.9%.

Consider `CC(NC(=O)c1ccc(Cn2c(SCc3ccccc3)nc3cccnc32)cc1)c1ccccc1` (stereo not given), for which the inhibition came out at 0.473%. On to `CCOc1ccc(N(CC(=O)NCc2ccc(C)cc2)S(=O)(=O)c2c(C)[nH]c(=O)[nH]c2=O)cc1`, for which the inhibition turned out to be 18.1%. In the case of `COc1ccccc1Nc1nn2c(=O)c3ccc(C(=O)NC4CCCCC4)cc3nc2s1`, the inhibition was -3.79%. `Cc1cc(Cl)ccc1OCC(=O)NNC(=O)CCOc1ccccc1`: the inhibition was active: 31.1%. Regarding `CCOC(=O)N1CCc2c(sc(NCc3ccc(N(C)C)cc3)c2C(=O)Nc2ccccc2OCC)C1`, the inhibition was -6.51%. Turning to `Brc1ccc(-c2csc(-c3nc(-c4ccc(Br)s4)cs3)n2)cc1`, the inhibition stood at 5.84%.

For `CCCS(=O)(=O)NCCc1sc2nc(-c3ccc(Cl)cc3)nn2c1C`, the inhibition was -2.19%. The value for `Cc1cc(C(=O)Nc2ccc(Cl)cc2)c2c(C)nn(-c3ccccc3)c2n1` was 16.3%.

As to `CCOC(=O)c1c(NC(=O)c2cc(=O)c3c(C)cc(C)cc3o2)sc(C)c1C`, the inhibition is -1.36%.

As for `COc1cccc(NC(=O)CN2C(=O)COc3ccc(S(=O)(=O)N4CCOCC4)cc32)c1`, the inhibition was 6.68%. As for `Cc1[nH]c2ccccc2c1C1(O)C(=O)N(Cc2ccccc2)c2ccc(Br)cc21` (stereo not given), the inhibition is -27.5%. Under `COc1ccccc1CNc1ncnc2onc(-c3ccc(Cl)cc3)c12` stands 1.38%. The value for `CN(c1nnc(NC(=O)Nc2ccc(Br)cc2)s1)C1CCCCC1` was 14.4%; that for `Cc1ccc(NC(=O)Nc2csc3c2CCCC3)c(C)c1` was 3.54%. Consider `CNC(=O)C1CCC(Cn2c(=O)c3sccc3n(CC(=O)Nc3ccc(C)cc3C)c2=O)CC1` (stereo not given), for which the inhibition came out at 6.18%. The value for `Cc1cccc(NC(=O)CSc2nc(=O)n(CCN3CCOCC3)c3c2CCC3)c1` was 14.4%. The value for `O=C(NC1CCN(Cc2ccccc2)CC1)C(NS(=O)(=O)c1cccc2nsnc12)c1ccccc1` (stereo not given) was active: 34.5%; that for `O=C(CN1C(=O)COc2ccc(S(=O)(=O)NC3CCCC3)cc21)Nc1ccc(F)c(Cl)c1` was 7.79%; that for `O=C(NCCn1cc(SCc2ccc(C(F)(F)F)cc2)c2ccccc21)c1cccs1` was 23.7%. The value for `COc1ccc(-n2nc3c(N4CCCC(C(=O)NCc5ccccc5C)C4)nnc(C)c3c2C)cc1` (stereo not given) was -23.2%; that for `CC(=O)c1cccc(NC(=O)c2ccc3ccccc3c2)c1` was active: 31.4%. Consider `CSc1ccc(CCNC(=O)c2ccc3c(c2)nc2n3CCC(C)C2)cc1` (stereo not given), for which the inhibition came out at 6.68%. Under `CCOCCc1nn2c(=O)cc(COC(=O)c3ccccc3NC(=O)c3cccs3)nc2s1` stands 2.72%; under `CCc1ccccc1NC(=O)N1CC(CC)Oc2ccc(Cl)cc21` (stereo not given), -12.1%. For `O=C(NC1CC(=O)N(c2ccccc2)C1)c1cccs1` (stereo not given), the inhibition was -11.8%. Regarding `Cc1cccc(N2CCN(C(=O)CCNS(=O)(=O)c3ccc4c(c3)CCN4C(=O)C3CC3)CC2C)c1` (stereo not given), the inhibition came to 9.96%. The value for `Cc1cccc(C(=O)Nc2nc3c(s2)CCCC3)c1` was 9.56%; that for `CCOC(=O)N1CCc2c(sc3c2c(=O)n(CCc2ccccc2)c(=O)n3Cc2ccc(C)cc2C)C1` was -14.8%; that for `c1ccc(CNc2ncnc3[nH]ncc23)cc1` was 7.43%. In the case of `COc1ccc(-c2nc(CCNC(=O)Cc3ccc(F)cc3)cs2)cc1`, the inhibition stood at 12.9%. With `Cc1ccc(CN(Cc2ccco2)C(=O)c2ccccc2Cl)o1`, the inhibition is 0.226%. Regarding `CC(=O)c1ccc(NC(=O)c2cn(C)c(=O)c3ccccc23)cc1`, the inhibition is -12%. With `O=C(C1CCCN(S(=O)(=O)c2cccs2)C1)N1CCN(c2ccccc2F)CC1` (stereo not given), the inhibition was -25.9%. The value for `CN1C(=O)c2ccccc2Sc2ccc(NC(=O)NCc3ccccc3Br)cc21` was 13.6%; that for `Cc1ccc(CN(Cc2cccn2-c2nnc(N3CCCC3=O)s2)C(=O)Nc2cc(C)cc(C)c2)cc1` was 0.364%; that for `Cc1nc2sc(C)c(C)n2c(=O)c1S(=O)(=O)NCCc1ccc(Cl)cc1` was 7.13%.

On to `COc1ccc(-c2nc3c(c(SCC(=O)Nc4cc(C)cc(C)c4)n2)Cc2c(CO)cnc(C)c2O3)cc1`, for which the inhibition worked out at 18.1%. As for `COc1cccc(CN2C(=O)C3(SCC(=O)N3c3ccc(F)cc3)c3ccccc32)c1` (stereo not given), the inhibition turned out to be 4.74%. Under `Cc1ccc(Cn2c(C)c(CNCc3ccccc3F)c(C(=O)O)c2C)cc1` stands 5.59%; under `CCc1ccccc1N(C)C(=O)c1cc2c(s1)-c1c(C)cccc1OC2`, -2.05%; under `O=C(C1=C[C@@H](c2coc3ccccc3c2=O)C[C@@H](OCCCCO)O1)N1CCOCC1`, active: 62.1%.

With `COC(=O)c1c(NC(=O)CCCOc2cccc(C)c2)sc2c1CCC(C)C2` (stereo not given), the inhibition was -1.63%. On to `O=C(Cn1ncc2c3ccccc3n(Cc3ccccc3)c2c1=O)NCc1ccccc1`, for which the inhibition is -2.58%.

Consider `CC(C)NS(=O)(=O)c1ccc(OCC(=O)N2CCN(c3cccc(Cl)c3)CC2)cc1`, for which the inhibition is -4.63%.

As for `CCOC(=O)c1ccc(N2C(=O)c3n[nH]c(-c4ccco4)c3C2c2cccc(F)c2)cc1` (stereo not given), the inhibition amounted to 23.8%.

`Cc1ccc(NC(=O)CSc2nc3ccc(NC(=O)c4cccc(Cl)c4)cc3s2)c(C)c1`: the inhibition was -15.6%. The value for `COc1ccccc1C(=O)Nc1ccc(-c2nc3cc(C)cc(C)c3o2)cc1` was 8.44%. Take `O=C(C1COc2cc(S(=O)(=O)Nc3ccc(Cl)cc3)ccc2O1)N1CCCC1` (stereo not given): the inhibition amounted to 19.3%.

For `Cc1cc(=O)nc2c3ccccc3n(C(C)C(=O)Nc3c(F)c(F)c(F)c(F)c3F)n12` (stereo not given), the inhibition is active: 44.9%. The value for `CC(C)(C)OC(=O)N1CCC(c2c(C(=O)O)cnn2-c2ccc(F)cc2F)CC1` was -5.01%; that for `O=C(CN1C(=O)COc2ccc(S(=O)(=O)N3CCCCCC3)cc21)N1CCN(c2cccc(Cl)c2)CC1` was 18.8%.

For `CCC(=O)N1CCc2cc(S(=O)(=O)NC(Cc3ccccc3)C(=O)Nc3ccc(Cl)cc3)ccc21` (stereo not given), the inhibition came out at 13%. As to `O=C(CSc1nc(-c2ccccc2)[nH]c1-c1ccc(F)cc1)NC1CCCC1`, the inhibition is -10.5%. The value for `COc1ccccc1C(=O)N1CCC(c2c[nH]c3ccccc23)(c2c[nH]c3ccccc23)CC1` was -0.173%; that for `CC(C)c1ccc(S(=O)(=O)Nc2cc3c(cc2NCc2ccccc2)n(C)c(=O)n3C)cc1` was 9.12%. The value for `COc1ccc(CCNC(=O)c2cc3cccc4c3n2CC(C)S4)c(OC)c1OC` (stereo not given) was 13%; that for `CCCC(=O)Nc1c(C(=O)N2CCN(c3ccccc3)CC2)oc2ccccc12` was 14.4%. For the compound `CCc1ccccc1NC(=O)C1=CC(c2ccc3c(c2)OCO3)=NS(=O)(=O)N1C`, the inhibition stood at 19.1%. As to `COc1ccccc1C(=O)CC1(O)C(=O)N(CC(N)=O)c2ccccc21` (stereo not given), the inhibition is -3.22%.

With `CC(C)(C)c1ccc(C(=O)Nc2ccc3nc(SCC(=O)N4CCCC4)sc3c2)cc1`, the inhibition is -8.22%. As to `CCOc1ccccc1NC(=O)Cn1c(=O)n(Cc2ccco2)c(=O)c2cccnc21`, the inhibition was 7.87%. Under `COc1ccc(-c2cc(C(=O)Oc3ccc(Cl)cc3)c3ccccc3n2)cc1` stands 3.04%; under `C=CCC(=O)N(CC)CC1CCCN(CCc2cccc(F)c2)C1` (stereo not given), active: 49.5%. Under `Cc1ccc(Nc2cc(-c3ccccc3)nc3ncnn23)cc1` stands active: 33.5%; under `CCCCn1cnc2cc(NC(=O)c3cc(OC)c(OC)c(OC)c3)ccc21`, -2.79%. `Cc1cc(C)cc(N(CC(=O)Nc2ccc(C(F)(F)F)cc2)S(=O)(=O)c2c(C)[nH]c(=O)[nH]c2=O)c1`: the inhibition amounted to 1.68%. With `Cc1ccc(OCCSc2nc3ccccc3n2CCC(=O)O)cc1C`, the inhibition was found to be 8.33%. Under `CCOc1ccc(NC(=O)NC(CC)Cn2nnc3ccccc3c2=O)cc1` (stereo not given) stands 16.8%; under `COc1ccc(/C=C(\NC(=O)c2ccccc2)C(=O)NC2CCCCC2)cc1`, -2.94%; under `CCOC(=O)C1(CC2CCCCO2)CCN(Cc2ccc(OC)cc2F)CC1` (stereo not given), active: 60.9%. On to `O=C(CSc1ncc(S(=O)(=O)c2ccc(Br)cc2)c(=O)[nH]1)NCc1ccccc1Cl`, for which the inhibition came to 3.25%. The value for `Cc1nc2ncnn2c(C)c1CCC(=O)NCc1ccc(Cl)cc1` was -21%; that for `Cc1cccc(NC(=O)c2nc[nH]c2C(=O)N2CCC(C)CC2)c1` was active: 39%; that for `Cc1ccc(NC(=O)Cn2ccn(Cc3ccc(Cl)cc3)c(=O)c2=O)cc1C` was -7.33%. `CCOC(=O)C1CCN(C(=O)c2ccc3c(c2)sc2nc(-c4ccc(OCC)cc4)cn23)CC1`: the inhibition is -6.64%. Under `COc1ccc(-c2nc(SCC(=O)NC3CCCC3)c(-c3ccccc3)[nH]2)cc1OC` stands 9.83%. Under `COc1ccc(OC)c(Nc2cc(C(=O)NCc3ccccc3)c3ccccc3n2)c1` stands 13.9%. The value for `CC(=O)c1cccc(-n2c(CCC(=O)O)ccc2-c2ccccc2)c1` was 5.74%; that for `Cc1ccc(-n2ncc3c(Nc4ccc5c(c4)OCCO5)ncnc32)cc1C` was 20.1%; that for `COc1ccc(CNC(=O)c2cnn(-c3ccc(C)cc3)c2C2CCN(C(=O)OC(C)(C)C)CC2)cc1` was 8.56%. On to `COc1cc(Cl)c(C)cc1NC(=O)CSCc1nc(-c2ccc(OC)c(OC)c2)no1`, for which the inhibition was 6.23%.
